# Measurements taken from PubChem BioAssay AID504832 (National Center for Advancing Translational Sciences (NCATS), 2011).
# Out of some 310,000 compounds screened, about 18,000 (5.8%) were called active. Inconclusive means that the source gave no clear call. Such entries were picked first, then a sample of the others. The call rests on the fitted dose curve; in most records, active means well fitted inhibition curve with a large enough effect; inconclusive means small, poorly fitted or top-dose-only effect, or another doubt; inactive means no such curve, though single readings can be large or run the other way. Potencies of inconclusive entries are left out as doubtful fits.
# Experiment: Primary qHTS for delayed death inhibitors of the malarial parasite plastid, 48 hour incubation
# Details: P. falciparum luciferase growth in erythrocytes; series mostly up to 28.7 µM; activity change, negative = inhibition: at the top concentration
# Procedure, shortened: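 First compound was added to culture medium, then infected red cells at 0.1% parasitemia and 2% hematocrit (final). After incubation at 37 C under 5% CO2, luciferase detection reagent was dispensed and light output recorded.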
# On the % scale 0 is the no-effect control and ±100 the full control effect; potency means the concentration at half of the fitted maximal effect; tags describe the fitted curve by direction and shape.
SMILES,"activity change, negative = inhibition",Potency
O=C1CCCN1c1ccc(S(=O)(=O)NCCOc2ccccc2)cc1,inactive: -27.4%,–
CC1(NC(=S)NCCCCCCNC(=S)NC2(C)CCS(=O)(=O)C2)CCS(=O)(=O)C1 (stereo not drawn),–,"inconclusive [inhibitor, partial curve]"
CC(=O)c1ccc(N2CCN(C(=O)c3ccco3)C(C)C2)c(F)c1 (stereo not drawn),inactive: -16.9%,–
Cc1cc(C)c(S(=O)(=O)N2CCOCC2)c(C)c1N(C)S(=O)(=O)c1ccccc1,–,"inconclusive [inhibitor, partial curve, poor fit]"
COC(=O)CN1C(=S)N(Cc2ccccc2)C(=O)C1CC(=O)Nc1ccc(OC)cc1 (stereo not drawn),–,active: 4.15 µM
COCc1nnc(NC(=O)c2c(-c3c(Cl)cccc3Cl)noc2C)s1,inactive: 0.653%,–
COc1cccc(NC(=O)CN(C)C(=O)c2ccc3c(c2)CC(c2ccccc2)OC3=O)c1 (stereo not drawn),–,"inconclusive [inhibitor, single point]"
COc1ccc(CCN(C(=O)c2snc(C(N)=O)c2N)C(C)C(=O)NC2CCCCC2)cc1OC (stereo not drawn),–,"inconclusive [inhibitor, single point]"
Cc1cc(C)c2cc3c(N)c(C(=O)Nc4c(C)[nH]c(=O)[nH]c4=O)sc3nc2c1,inactive: -18.8%,–
CCOc1ccc(C(=O)NNC(=O)c2cc(S(=O)(=O)N3CCOCC3)ccc2Cl)cc1,–,"inconclusive [inhibitor, single point]"
CC(=NCc1ccco1)c1c(O)n(-c2ccc(Cl)cc2)c(=O)[nH]c1=O,–,"inconclusive [inhibitor, single point]"
CCOC(=O)C1CSC(CC(=O)Nc2ccc(OC(F)(F)F)cc2)C(=O)N1 (stereo not drawn),inactive: -15.8%,–
N#Cc1c(NC(=O)c2cc([N+](=O)[O-])ccc2N2CCOCC2)sc2c1CCCC2,–,"inconclusive [inhibitor, single point]"
O=C(Cc1ccccc1)Nc1nc(-c2cccc([N+](=O)[O-])c2)cs1,inactive: 8.15%,–
Cc1ccc(C(C(=O)NC2CCCC2)N(Cc2ccco2)C(=O)CCC(=O)Nc2cc(C)on2)cc1 (stereo not drawn),–,"inconclusive [inhibitor, single point]"
COc1ccc(NC(=O)c2cccc(S(=O)(=O)N3CCc4ccccc43)c2)cn1,–,"inconclusive [inhibitor, partial curve, poor fit]"
CCC(C)(C)NC(=O)Cn1c(=O)oc2cc(S(=O)(=O)N3CC(C)CC(C)C3)ccc21 (stereo not drawn),–,"inconclusive [inhibitor, partial curve, poor fit]"
N#C/C(=C\c1ccc(O)c(O)c1)C(=O)N1CCCC1,–,"inconclusive [inhibitor, single point]"
O=C(NCc1ccc(F)cc1)C1CCCN1S(=O)(=O)c1ccccc1C(F)(F)F (stereo not drawn),–,"inconclusive [inhibitor, single point]"
Nc1ccc(C(=O)N/N=C/c2ccccc2)cc1,inactive: 112%,–
CCCC1S/C(=N/N=C/c2ccc(OC)cc2)N(Cc2ccccc2)C1=O (stereo not drawn),–,"inconclusive [inhibitor, single point]"
CCOC(=O)c1ccc(N=C2C(=S)N(c3ccc(C(=O)OCC)cc3)C(=N)N2/N=C/c2ccccc2)cc1,–,"inconclusive [inhibitor, single point]"

SMILES,"activity change, negative = inhibition",Potency
Nc1ccc(C(=O)N/N=C/c2sc(N3CCOCC3)nc2-c2ccccc2)cc1,–,"inconclusive [inhibitor, single point]"
COc1ccc(CCN(C)C2CCCN(C(=O)Cn3cccn3)C2)cc1OC (stereo not drawn),inactive: -5.86%,–
CC(C)=CCc1c(O)ccc(C(=O)Cc2ccccc2)c1O,–,"inconclusive [inhibitor, single point]"
Cc1ccc(NC(=O)N2CCCN(C(=O)OC(C)(C)C)CC2)cc1Cl,–,"inconclusive [inhibitor, single point]"
COc1cc(NC(=O)COC(=O)CCOc2ccc(C)cc2)cc(OC)c1,inactive: 42.4%,–
COCCn1c(-c2ccccc2)cnc1N,–,"inconclusive [inhibitor, partial curve]"
CC(=O)Nc1ccc(NC(=O)CN(c2ccc(C(C)C)cc2)S(=O)(=O)c2ccccc2)cc1,–,"inconclusive [inhibitor, single point]"
COc1cccc(OCc2cc(C(=O)N(C)C3CC(C)(C)NC(C)(C)C3)no2)c1,–,"inconclusive [inhibitor, single point]"
O=C(N/N=C/c1c[nH]c2ccccc12)c1cc(-c2cccc3ccccc23)n[nH]1,inactive: 1.11%,–
CC(=O)NC12CC3CC(C1)CC(C(=O)N1CCN(S(=O)(=O)c4cccc(F)c4)CC1)(C3)C2,–,"inconclusive [inhibitor, single point]"
C=CCn1c(O)c(N=NC(=O)c2cccnc2)c2cc(Br)ccc21,–,"inconclusive [inhibitor, partial curve, poor fit]"
CCN(CC)C(=O)Oc1ccc2c(=O)c(-c3ccccc3)coc2c1,inactive: 85.2%,–
Nc1cccc(Nc2ncnc3ccccc23)c1,inactive: -3.5%,–
CN(Cc1ccco1)c1ncnc2ccc(-c3ccc4c(ccn4C)c3)cc12,–,active: 10.4 µM
COC(=O)CCC(=O)OC1(C)C(=O)C=C2C=C(C3CC3)N(CC3CC3)C=C2C1=O (stereo not drawn),–,active: 10.4 µM
Cn1c(=O)[nH]c(=O)c2c1nc(CN1CCN(c3cccc(Cl)c3)CC1)n2CCc1ccccc1,–,"inconclusive [inhibitor, single point]"
CC(=O)Nc1c(O)nc(SCC(=O)Nc2ccc(C(C)=O)cc2)[nH]c1=O,inactive: 83.1%,–
COc1cc2c(cc1OC)CN(C(=O)c1cc(Cl)nc(Cl)c1)CC2,–,"inconclusive [inhibitor, partial curve]"
Cc1ccc(NC(=O)N(Cc2ccc3c(c2)OCO3)Cc2cc3cc4c(cc3[nH]c2=O)OCCO4)cc1,–,active: 1.31 µM
c1ccc(-c2ccccc2OCCOCCN2CCNCC2)cc1,–,"inconclusive [inhibitor, partial curve]"
CCCc1cc(=O)oc2cc(C)cc(OC(=O)c3ccco3)c12,–,"inconclusive [inhibitor, partial curve]"
